# According to PubChem BioAssay (NCATS):
# The list shows a part of the results. These are further read-outs of the screen, such as a control signal, another cell line or another target. No call is given for them. For part of these data: Compounds called inactive in the main read-out are mostly missing here. Words in brackets tell the shape of the fitted curve; partial curves, single points and poor fits give uncertain potencies.
# Columns and labels:
# [1] = qHTS drug screen for cell cycle checkpoint inhibitors in PARPi-resistant BRCA-mutant ovarian cancer cell lines. (AID 1963452); conditions: PEO1/OlaR viability, CellTiter-Glo luminescence, 96 h
# In short: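 PEO1, PEO4 and PEO1/OlaR ovarian cancer cells, 600 per well, exposed 96 h at 37C to a dilution series. Viability read by CellTiter-Glo luminescence, normalized to DMSO and empty wells; activity summarized as Z-AUC.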
# [2] = qHTS for identification of novel therapeutic agents for treatment of microphthalmiaassociated transcription factor (MiT) renal cell carcinoma (RCC) (AID 1963991); conditions: CellTiter-Glo, 48 h; for z-score: stronger effect = lower value
# In short: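 Curves over 11 concentrations were fitted to CellTiter-Glo luminescence, scaled between empty wells (0%) and DMSO (100%) viability. Cells were UOK109, UOK124 and UOK145 TFE3-fusion RCC lines at 500/well, exposed 48 hours at 37 C.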
# [3] = S16 Schwann cell PMP22 intronic element beta-lactamase assay (AID 624044); conditions: S16 rat Schwann cells, PMP22 element beta-lactamase FRET, 24 h; note: nearly all actives have a fitted effect of over 15% in size
# In short: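 Beta-lactamase reporter under a PMP22 intronic regulatory element in stable S16 rat Schwann cells; 24 h compound exposure. 460 nm blue signal normalized between DMSO (0%) and potassium clavulanate, with 535 nm FRET tracking viability; curves classed by r2 and response.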
# [4] = qHTS Validation Assay to Find Inhibitors of Chronic Active B-Cell Receptor Signaling (AID 485345); conditions: ABC-DLBCL cells, chronic BCR signaling reporter
# In short: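 Read-out: ratio of filter-corrected green (IkappaBalpha fusion) to red (native) luciferase signal in doxycycline-induced TMD8 cells after 4 h at 37C. Titration spanned 46 uM–3 nM; Data were normalised to basal cells and 10 uM MG-132 wells.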
# [5] = Nrf2 qHTS screen for inhibitors: Validation (AID 493153); conditions: A549 ARE-Fluc reporter, 18-24 h; AC50: CellTiter-Fluor fluorescence read, measured here: cytotoxicity CellTiter-Fluor AC50; viability change: measured here: cytotoxicity max response
# In short: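 Concentration-response on A549 ARE_Fluc reporter cells exposed 18-24 h at 37 C, 5% CO2. Cytotoxicity read first by CellTiter-Fluor fluorescence (Ex 405/Em 525), then Nrf2 inhibition by BugLite luminescence after 15 min.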
# [6] = measured here: PEO1 parental viability
# [7] = TFE3-RCC UOK109 viability, measured here: UOK109 Z-AUC
# [8] = TFE3-RCC viability, measured here: UOK124 Z-AUC
# [9] = TFE3-RCC viability, measured here: UOK124 cell viability
# [10] = TFE3-RCC viability, measured here: UOK145 Z-AUC
# [11] = TFE3-RCC viability, measured here: UOK145 cell viability
# [12] = measured here: 460 nm blue channel
# Tags give direction and shape of the fitted curve.
SMILES,"AC50 [1, 6]",AC50 ([1]; measured here: PEO4 viability),"z-score [2, 7]","z-score [2, 8]","AC50 [2, 9]","z-score [2, 10]","AC50 [2, 11]","AC50 [3, 12]",AC50 ([3]; measured here: 530 nm viability channel),AC50 ([4]; measured here: CBG/CBR ratio read-out),AC50 ([4]; measured here: CBR control luciferase (viability counter)),AC50 [5],viability change [5]
FC(F)c1nc2ccccc2n1-c1nc(N2CCOCC2)nc(N2CCOCC2)n1,"0.616 µM [falling, partial curve]","1.55 µM [falling, full curve]",-1.64,-0.721,"0.418 µM [falling, full curve]",-0.768,"1.05 µM [falling, full curve]",,,,,,
CCC(C(=O)O)C1CCC(C)C(C(C)C(O)C(C)C(=O)C(CC)C2OC3(C=CC(O)[C@@]4(CC[C@](C)(C5CC[C@@](O)(CC)C(C)O5)O4)O3)C(C)CC2C)O1 (stereo not given in full),"0.49 µM [falling, partial curve]","0.174 µM [falling, full curve]",-0.7,-0.925,"0.743 µM [falling, full curve]",-0.117,"4.69 µM [falling, partial curve]",,,,,,
Clc1ccc(C(c2ccc(Cl)cc2)n2cc[n+](CC(OCc3ccc(Cl)cc3Cl)c3ccc(Cl)cc3Cl)c2)cc1 (stereo not given),"5.49 µM [falling, partial curve]","3.89 µM [falling, full curve]",0.376,-0.254,"23.5 µM [falling, partial curve]",0.755,"33.2 µM [falling, single point]",,,,,,
CNC(=O)c1ccccc1Nc1nc(Nc2ccc(N3CCOCC3)cc2OC)ncc1Cl,"9.77 µM [falling, partial curve]","3.09 µM [falling, partial curve]",-0.795,-0.768,"4.69 µM [falling, partial curve]",-1.07,"13.2 µM [falling, partial curve]",,,,,,
C#Cc1cccc(Nc2ncnc3cc(OC)c(OCCCCCCC(=O)NO)cc23)c1,"1.1 µM [falling, full curve]","1.1 µM [falling, full curve]",-1.73,-1.86,"0.0126 µM [falling, partial curve]",-0.176,"14.8 µM [falling, partial curve]",,,,,,
c1cncc(CN2CCC(n3ncc4c(N5CCOCC5)nc(-c5ccc6[nH]ccc6c5)nc43)CC2)c1,"1.74 µM [falling, full curve, poor fit]","6.16 µM [falling, partial curve]",-0.757,-2.81,"10.5 µM [falling, partial curve]",-1.36,"5.26 µM [falling, partial curve]",,,,,,
CC(C)C[C@@H](C(=O)N[C@H](C(=O)OC1CCCC1)c1ccccc1)[C@H](O)C(=O)NO,"17.4 µM [falling, partial curve, poor fit]","7.76 µM [falling, partial curve]",-0.107,0.683,"16.6 µM [falling, partial curve]",0.033,"23.5 µM [falling, partial curve, poor fit]",,,,,,
COc1cc(NCc2ccc3nc(N)nc(N)c3c2C)cc(OC)c1OC,"21.9 µM [falling, single point]","4.9 µM [falling, partial curve]",-0.268,-2.24,"0.59 µM [falling, full curve]",-1.37,"2.35 µM [falling, full curve]","1.12 µM [falling, full curve, poor fit]","1.78 µM [falling, full curve]",,,,
CCCOc1ccc2nc(NC(=O)OC)[nH]c2c1,"0.174 µM [falling, full curve]","0.138 µM [falling, full curve]",,,"0.0264 µM [falling, full curve]",,"0.00469 µM [falling, full curve, poor fit]","0.794 µM [falling, full curve, poor fit]",,,,,
COc1cc2c(cc1O)CC[C@@H]1[C@@H]2CC[C@]2(C)[C@@H](O)CC[C@@H]12,"0.549 µM [falling, full curve]","0.871 µM [falling, full curve]",,,,,,,,"20.6 µM [falling, partial curve]","7.31 µM [rising, partial curve]","4.11 µM [falling, partial curve, poor fit]",-13.6%
Cc1cc(=O)oc2cc(O)ccc12,"0.275 µM [rising, full curve, poor fit]","3.47 µM [rising, partial curve, poor fit]",0.101,0.44,,1.07,,"6 µM [falling, partial curve, poor fit]",,,,,
